Results are given in words; binding and its absence hold for the method and conditions named. Binding seen in cells or lysates may run through a third protein. Some results given as binding are weak or reduced against the parent protein; the word gives no strength. Tags and fused reporters may be left off the sequences shown.
T1: human DHX8 with 3 x HA-biotin (HB) tag, full-length (WT) (human) (UniProt Q14562)
T1 sequence: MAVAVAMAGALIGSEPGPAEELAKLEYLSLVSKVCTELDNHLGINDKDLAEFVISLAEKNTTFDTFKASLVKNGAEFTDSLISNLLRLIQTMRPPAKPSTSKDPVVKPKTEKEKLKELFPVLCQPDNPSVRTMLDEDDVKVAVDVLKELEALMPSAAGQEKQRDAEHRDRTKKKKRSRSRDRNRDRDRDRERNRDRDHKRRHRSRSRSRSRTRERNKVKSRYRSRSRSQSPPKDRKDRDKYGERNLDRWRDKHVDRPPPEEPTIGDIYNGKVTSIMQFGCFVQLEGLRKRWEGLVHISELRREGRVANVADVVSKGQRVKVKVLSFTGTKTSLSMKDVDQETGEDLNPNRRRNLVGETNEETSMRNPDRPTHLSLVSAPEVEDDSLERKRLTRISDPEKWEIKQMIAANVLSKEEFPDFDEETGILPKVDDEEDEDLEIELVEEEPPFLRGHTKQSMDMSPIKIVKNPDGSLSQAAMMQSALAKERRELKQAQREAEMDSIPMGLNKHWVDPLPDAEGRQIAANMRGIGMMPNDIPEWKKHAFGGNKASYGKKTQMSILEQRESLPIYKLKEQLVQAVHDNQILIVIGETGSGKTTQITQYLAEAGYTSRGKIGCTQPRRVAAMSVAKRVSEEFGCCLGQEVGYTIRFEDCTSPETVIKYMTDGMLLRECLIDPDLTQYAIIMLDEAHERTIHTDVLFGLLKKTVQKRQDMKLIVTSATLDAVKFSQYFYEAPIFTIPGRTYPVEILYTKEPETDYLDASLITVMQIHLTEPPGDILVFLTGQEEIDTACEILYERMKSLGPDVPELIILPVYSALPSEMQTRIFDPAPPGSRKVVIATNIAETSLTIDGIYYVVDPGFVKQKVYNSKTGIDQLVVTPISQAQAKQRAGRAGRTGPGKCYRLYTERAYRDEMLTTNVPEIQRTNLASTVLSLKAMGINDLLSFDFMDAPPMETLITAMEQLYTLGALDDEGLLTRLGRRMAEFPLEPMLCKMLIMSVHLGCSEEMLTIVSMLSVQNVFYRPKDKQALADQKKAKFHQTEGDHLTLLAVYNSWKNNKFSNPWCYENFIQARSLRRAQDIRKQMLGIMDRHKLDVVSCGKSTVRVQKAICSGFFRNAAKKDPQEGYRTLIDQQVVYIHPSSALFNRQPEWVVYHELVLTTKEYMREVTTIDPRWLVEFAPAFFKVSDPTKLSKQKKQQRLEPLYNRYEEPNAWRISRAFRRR

T2: DHX8 WRO fragment (residues 917-1220) with HB tag (human) (UniProt Q14562)
T2 sequence: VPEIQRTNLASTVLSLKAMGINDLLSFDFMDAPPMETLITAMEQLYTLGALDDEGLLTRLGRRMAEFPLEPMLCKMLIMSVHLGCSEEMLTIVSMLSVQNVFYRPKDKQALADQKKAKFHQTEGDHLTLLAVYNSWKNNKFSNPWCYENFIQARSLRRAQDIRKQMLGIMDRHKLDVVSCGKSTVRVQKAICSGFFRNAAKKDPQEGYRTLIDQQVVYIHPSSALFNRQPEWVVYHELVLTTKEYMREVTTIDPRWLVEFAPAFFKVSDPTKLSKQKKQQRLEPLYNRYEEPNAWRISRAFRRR

T3: DHX8 C-terminal fragment (residues 567-1220) with HB tag (human) (UniProt Q14562)
T3 sequence: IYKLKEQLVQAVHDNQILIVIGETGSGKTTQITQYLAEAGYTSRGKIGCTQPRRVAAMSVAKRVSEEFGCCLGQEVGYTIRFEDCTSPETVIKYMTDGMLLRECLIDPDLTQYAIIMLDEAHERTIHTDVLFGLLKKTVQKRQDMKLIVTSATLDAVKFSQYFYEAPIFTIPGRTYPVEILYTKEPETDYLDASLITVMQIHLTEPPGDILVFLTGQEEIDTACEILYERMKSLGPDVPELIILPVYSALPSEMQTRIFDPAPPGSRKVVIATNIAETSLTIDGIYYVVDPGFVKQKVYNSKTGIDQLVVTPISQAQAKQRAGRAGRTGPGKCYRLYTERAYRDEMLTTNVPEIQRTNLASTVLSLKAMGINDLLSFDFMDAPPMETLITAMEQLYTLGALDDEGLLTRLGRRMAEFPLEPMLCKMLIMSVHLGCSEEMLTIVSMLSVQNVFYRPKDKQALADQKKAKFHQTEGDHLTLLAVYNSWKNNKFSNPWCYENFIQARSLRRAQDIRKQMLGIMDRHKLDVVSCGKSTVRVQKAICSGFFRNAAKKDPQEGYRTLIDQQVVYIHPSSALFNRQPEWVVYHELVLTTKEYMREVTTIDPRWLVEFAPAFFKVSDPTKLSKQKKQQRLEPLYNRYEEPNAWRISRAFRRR

T4: DHX8 RecA fragment (residues 567-916) with HB tag (human) (UniProt Q14562)
T4 sequence: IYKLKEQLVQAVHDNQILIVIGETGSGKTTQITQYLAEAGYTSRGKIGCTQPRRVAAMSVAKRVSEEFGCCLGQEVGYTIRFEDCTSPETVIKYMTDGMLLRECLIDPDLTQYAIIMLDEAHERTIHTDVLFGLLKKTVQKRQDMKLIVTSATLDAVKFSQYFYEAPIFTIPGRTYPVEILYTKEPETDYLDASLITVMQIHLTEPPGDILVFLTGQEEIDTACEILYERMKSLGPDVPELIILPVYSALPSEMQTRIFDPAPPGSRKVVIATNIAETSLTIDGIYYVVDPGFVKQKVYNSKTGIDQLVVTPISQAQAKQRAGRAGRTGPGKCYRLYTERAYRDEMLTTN

T5: DHX8 N-terminal fragment (residues 1-566) with HB tag (human) (UniProt Q14562)
T5 sequence: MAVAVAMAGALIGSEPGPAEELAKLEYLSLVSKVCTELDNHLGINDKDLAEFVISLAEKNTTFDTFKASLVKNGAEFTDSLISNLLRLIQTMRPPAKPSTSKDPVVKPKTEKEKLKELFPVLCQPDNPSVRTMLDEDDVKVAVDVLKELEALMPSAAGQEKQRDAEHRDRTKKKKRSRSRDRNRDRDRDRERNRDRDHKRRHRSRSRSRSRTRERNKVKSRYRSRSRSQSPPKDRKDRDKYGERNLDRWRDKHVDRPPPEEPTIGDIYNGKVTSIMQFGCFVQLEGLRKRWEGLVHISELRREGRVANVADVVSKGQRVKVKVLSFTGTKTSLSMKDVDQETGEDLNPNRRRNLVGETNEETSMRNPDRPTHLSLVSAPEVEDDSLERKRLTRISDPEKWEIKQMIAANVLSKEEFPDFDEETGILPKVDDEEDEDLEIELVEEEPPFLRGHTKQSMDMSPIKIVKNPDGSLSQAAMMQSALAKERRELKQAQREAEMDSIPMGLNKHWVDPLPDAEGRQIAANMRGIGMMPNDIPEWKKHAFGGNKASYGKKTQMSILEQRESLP


Legend:
Assay in all cases: pull-down; lysates of co-transfected N2a cells in 1% Triton lysis buffer; HB-tagged DHX8 or its fragments captured on Streptavidin Sepharose beads, 2 h at 4°C, washed four times; SIDT2 detected by immunoblotting
[1] = target: T1, human DHX8 with 3 x HA-biotin (HB) tag, full-length (WT) (human)
[2] = target: T2, DHX8 WRO fragment (residues 917-1220) with HB tag (human)
[3] = target: T3, DHX8 C-terminal fragment (residues 567-1220) with HB tag (human)
[4] = target: T4, DHX8 RecA fragment (residues 567-916) with HB tag (human)
[5] = target: T5, DHX8 N-terminal fragment (residues 1-566) with HB tag (human)

| Binder | binding [1] | binding [2] | binding [3] | binding [4] | binding [5] |
| --- | --- | --- | --- | --- | --- |
| SIDT2 (overexpressed in N2a cells, Fig. 4H) (protein, UniProt Q8CIF6 19-832) HLGALGPKNVSQKDAEFERTYADDVNSELVNIYTFNHTVTRNRTEGVRVSVNVLNKQKGAPLLFVVRQKEAVVSFQVPLILRGLYQRKYLYQKVERTLCQPPTKNESEIQFFYVDVSTLSPVNTTYQLRVNRVDNFVLRTGELFTFNTTAAQPQYFKYEFPDGVDSVIVKVTSKKAFPCSVISIQDVLCPVYDLDNNVAFIGMYQTMTKKAAITVQRKDFPSNSFYVVVVVKTEDQACGGSLPFYPFVEDEPVDQGHRQKTLSVLVSQAVTSEAYVGGMLFCLGIFLSFYLLTVLLACWENWRQRKKTLLLAIDRACPESGHARVLADSFPGSAPYEGYNYGSFENGSGSTDGLVESAGSGDLSYSYQDRSFDAVGPRPRLDSMSSVEEDDYDTLTDIDSDKNVIRTKQYLCVADLARKDKRVLRKKYQIYFWNIATIAVFYALPVVQLVITYQTVVNVTGNQDICYYNFLCAHPLGNLSAFNNILSNLGYILLGLLFLLIILQREINHNRALLRNDLYALECGIPKHFGLFYAMGTALMMEGLLSACYHVCPNYTNFQFDTSFMYMIAGLCMLKLYQKRHPDINASAYSAYACLAIVIFFSVLGVVFGKGNTAFWIVFSVIHIISTLLLSTQLYYMGRWKLDSGIFRRILHVLYTDCIRQCSGPLYTDRMVLLVMGNIINWSLAAYGLIMRPNDFASYLLAIGICNLLLYFAFYIIMKLRSGERIKLIPLLCIVCTSVVWGFALFFFFQGLSTWQKTPAESREHNRDCILLDFFDDHDIWHFLSSIAMFGSFLVLLTLDDDLDTVQRDKIYVF | binds | – | – | – | – |
| FLAG-tagged mouse SIDT2 (protein, UniProt Q8CIF6 19-832) HLGALGPKNVSQKDAEFERTYADDVNSELVNIYTFNHTVTRNRTEGVRVSVNVLNKQKGAPLLFVVRQKEAVVSFQVPLILRGLYQRKYLYQKVERTLCQPPTKNESEIQFFYVDVSTLSPVNTTYQLRVNRVDNFVLRTGELFTFNTTAAQPQYFKYEFPDGVDSVIVKVTSKKAFPCSVISIQDVLCPVYDLDNNVAFIGMYQTMTKKAAITVQRKDFPSNSFYVVVVVKTEDQACGGSLPFYPFVEDEPVDQGHRQKTLSVLVSQAVTSEAYVGGMLFCLGIFLSFYLLTVLLACWENWRQRKKTLLLAIDRACPESGHARVLADSFPGSAPYEGYNYGSFENGSGSTDGLVESAGSGDLSYSYQDRSFDAVGPRPRLDSMSSVEEDDYDTLTDIDSDKNVIRTKQYLCVADLARKDKRVLRKKYQIYFWNIATIAVFYALPVVQLVITYQTVVNVTGNQDICYYNFLCAHPLGNLSAFNNILSNLGYILLGLLFLLIILQREINHNRALLRNDLYALECGIPKHFGLFYAMGTALMMEGLLSACYHVCPNYTNFQFDTSFMYMIAGLCMLKLYQKRHPDINASAYSAYACLAIVIFFSVLGVVFGKGNTAFWIVFSVIHIISTLLLSTQLYYMGRWKLDSGIFRRILHVLYTDCIRQCSGPLYTDRMVLLVMGNIINWSLAAYGLIMRPNDFASYLLAIGICNLLLYFAFYIIMKLRSGERIKLIPLLCIVCTSVVWGFALFFFFQGLSTWQKTPAESREHNRDCILLDFFDDHDIWHFLSSIAMFGSFLVLLTLDDDLDTVQRDKIYVF | – | binds | binds | binds | no binding |

— paper PMC12370622
